Results taken from the supplement of paper PMC3334620.
Over roughly 33,000 sequences, “E-score (-0.5 to 0.5)” has its median near -0.036; the highest 2% begin near 0.37. This is one part of the list.

What follows are sequences tested against T1, Yer064c (UniProt P40041) (assay: PBM E-score (8-mer binding enrichment) (E-score (-0.5 to 0.5)); higher = stronger / more preferred TF binding; most listed sequences are background and not binding sites). Settings: protein concentration: 200 nM; construct: GST-full length.
T1 sequence: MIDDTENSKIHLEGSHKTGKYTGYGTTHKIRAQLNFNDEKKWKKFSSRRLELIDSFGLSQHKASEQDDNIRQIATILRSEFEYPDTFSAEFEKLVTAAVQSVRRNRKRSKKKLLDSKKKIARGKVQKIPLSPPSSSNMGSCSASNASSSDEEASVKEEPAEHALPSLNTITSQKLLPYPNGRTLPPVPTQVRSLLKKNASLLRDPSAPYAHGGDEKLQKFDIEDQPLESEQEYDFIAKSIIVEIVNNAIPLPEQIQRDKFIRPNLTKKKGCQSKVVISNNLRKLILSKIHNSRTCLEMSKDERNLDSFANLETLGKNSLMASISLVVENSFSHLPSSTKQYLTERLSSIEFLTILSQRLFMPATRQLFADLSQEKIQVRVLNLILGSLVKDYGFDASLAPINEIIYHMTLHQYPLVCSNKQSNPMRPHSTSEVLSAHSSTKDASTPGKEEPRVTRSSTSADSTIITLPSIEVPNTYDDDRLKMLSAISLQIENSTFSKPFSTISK
Summary of the method: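 Universal all-10-mer Agilent arrays, double-stranded by primer extension on fresh or once-stripped slides, were probed with about 100-200 nM GST-tagged yeast transcription factors made by PURExpress. Fluorescent anti-GST detected bound protein, and masliner normalised the scans. E-scores from the Universal PBM Analysis Suite were given to each ungapped eight-base word pooled with its reverse complement.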

Row | Sequence | PBM E-score
1 | GCCGCGTA | -0.109
2 | CGAGGATA | -0.129
3 | GAAGCGAC | -0.017
4 | AAGCCTAT | -0.174
5 | ATCGTGGA | -0.0223
6 | GCCTCAAA | -0.224
7 | AACCAAGG | -0.124
8 | AAAGGCGT | -0.261
9 | GCTAAACA | 0.141
10 | CTATGCCA | -0.0441
11 | CTGCAGGC | -0.18
12 | CAACCACG | 0.137
13 | GGTTATAA | -0.187
14 | CCTTACCC | 0.0208
15 | CATACGAG | -0.114
16 | AATACCCT | -0.16
17 | CTTCTATA | 0.0181
18 | GCGCAGGA | -0.0398
19 | AAAGCTTG | -0.187
20 | GGGTTCTA | -0.193
21 | AGTGAGGA | -0.0132
22 | AAAAGCCC | -0.253
23 | CCCGCACA | -0.175
24 | AAGGTTGT | -0.113
25 | TTAACTAA | 0.138

Row | Sequence | PBM E-score
26 | GCAAAGTA | -0.0902
27 | TCCCCACA | -0.134
28 | AACCTGGG | -0.206
29 | AAATTCTA | -0.214
30 | CCGGTATA | 0.072
31 | ACGGATCA | 0.14
32 | AGTCAATA | 0.383
33 | GCTTTGCC | -0.279
34 | AGCGGCGA | -0.0237
35 | GCTTCCAA | -0.157
36 | CCCACCCG | 0.0275
37 | AACTTCGT | -0.188
38 | ATGTACTC | 0.179
39 | ACCCAATG | 0.0243
40 | ACGGCATC | -0.204
41 | GTTTTTGA | 0.187
42 | GTTGTGCA | -0.143
43 | AAGACGGT | -0.231
44 | CCGGTGGC | -0.184
45 | AGCCTCAA | -0.187
46 | GCCTTCTA | -0.287
47 | ACCTTATC | -0.0879
48 | ACAGGCAG | 0.157
49 | ACACCTGA | 0.0287
50 | AAGGAATC | 0.122

Row | Sequence | PBM E-score
51 | GTTAGCGA | 0.0957
52 | ATGCTTCC | -0.11
53 | ATTACCCG | 0.0405
54 | CTCCGCTC | -0.245
55 | ACACGGCA | -0.11
56 | TCAGCTCA | 0.144
57 | CATCAATG | 0.0157
58 | CTGTTCAC | -0.105
59 | CACTGACA | 0.0352
60 | AAAGTCTG | -0.0331
61 | CTCCGGTA | -0.0507
62 | GCAGGGGC | -0.231
63 | GTCTGATA | -0.0653
64 | AGAAACCG | -0.116
65 | CGCTCTAC | -0.128
66 | CAGCGCAC | -0.124
67 | ATTGCCGG | -0.217
68 | AGGCTCGG | -0.141
69 | TATTGGAA | -0.0853
70 | ACTTTACA | 0.00299
71 | CCCGACTA | 0.314
72 | CGGATAAA | 0.0163
73 | TCGGGAAA | -0.00439
74 | GTCTAATA | 0.0559
75 | AAACGCAT | -0.14

Row | Sequence | PBM E-score
76 | TATGATAA | 0.137
77 | ATTTGACA | 0.174
78 | CCATCCGA | 0.161
79 | ATAATCAA | 0.269
80 | CGGCGGAG | 0.00393
81 | GCAATTTA | -0.0541
82 | AGAGTGCC | -0.159
83 | CTAAGGGC | 0.00672
84 | AAAGTAGA | 0.062
85 | GATCGCTA | -0.333
86 | GCACTGGA | 0.0647
87 | CTCGACGA | -0.0175
88 | CCTGCTCG | -0.315
89 | GCCAATCC | -0.228
90 | CTCAGGGA | -0.0606
91 | ATGCGGCA | -0.212
92 | ACGTATAG | 0.0423
93 | GACTAAAA | 0.429
94 | AACTTACC | -0.0315
95 | CTAACAAC | 0.044
96 | GTTTCCAA | -0.0568
97 | ATAGGATA | -0.268
98 | ATGCGCAG | -0.196
99 | GGGTCAAA | -0.0891
100 | AGTCCCTA | 0.162

Row | Sequence | PBM E-score
101 | CGGGGCGC | -0.284
102 | ACGGCGGG | -0.0298
103 | GGAGCAAA | -0.0323
104 | TTCAGAAA | -0.0758
105 | CAAGCCTC | -0.0532
106 | CCAAACCC | -0.148
107 | ATGTAATG | 0.119
108 | AACAGGCC | -0.292
109 | AAGTTTCG | -0.0453
110 | AAGTGATA | -0.108
111 | TAATTGGA | 0.0568
112 | ACCTCAAT | -0.0727
113 | CGATCAGA | -0.00178
114 | CGAATATA | -0.0703
115 | AGTACTTG | 0.106
116 | CTCCAGGA | 0.111
117 | GCCGATAA | -0.264
118 | CGGGCACA | -0.212
119 | CACGGAGA | -0.13
120 | AACATGTT | -0.0253
121 | TAAAATCA | 0.282
122 | CGACCGCC | -0.228
123 | AATATCGA | 0.0795
124 | CTCATATA | 0.0515
125 | CGCATCCC | -0.317

Row | Sequence | PBM E-score
126 | GTTAAGTA | 0.0558
127 | AAACTATT | -0.145
128 | GATCCGGC | -0.0809
129 | CGCCGGTA | -0.138
130 | CACGGGAG | -0.133
131 | CAGCCGAA | -0.0452
132 | ACGGGCCT | -0.363
133 | CGCGAAAC | 0.0297
134 | CGTACGTA | 0.0559
135 | AGCGCAGA | -0.146
136 | GCATTCCA | -0.265
137 | AAAACTAA | 0.134
138 | ATGGTGAA | -0.203
139 | CTGATGCA | 0.0201
140 | ATGAATCC | 0.253
141 | ATCTTTAG | 0.102
142 | ACAGCGAT | -0.101
143 | CGTCCTGC | -0.214
144 | CGATGACC | 0.216
145 | CCGATGAC | 0.266
146 | CCACTCGG | -0.312
147 | TATACGCA | -0.00117
148 | AGTCGCGC | 0.356
149 | CAAACAGA | 0.0255
150 | ATTCCGCC | -0.0602

Row | Sequence | PBM E-score
151 | ACCAATTC | -0.024
152 | CGGCTCCA | -0.165
153 | CCAGTGCG | -0.191
154 | CATGTTGC | -0.0111
155 | ATCTAGGA | 0.0758
156 | ATGATAAG | 0.0215
157 | AATAAGGT | -0.11
158 | ACAAGCGT | -0.138
159 | GCAGGAGA | -0.186
160 | ACCACTTA | 0.0242
161 | CAGGTCGG | -0.196
162 | GACCCAGC | -0.146
163 | CTTATTGA | 0.255
164 | CTATCCGC | 0.00533
165 | ATACTACG | -0.0971
166 | AGCGGGCG | -0.377
167 | CAGCCATC | -0.0368
168 | GCGTCTAC | -0.229
169 | ACCCGTAT | -0.133
170 | AGATTCTA | -0.047
171 | CAAAGTAC | 0.155
172 | CACGAATA | 0.0279
